In PubChem BioAssay AID1963869 (Molecular Pharmacology Branch, DTP, NCI, 2024):
The source holds more than one record for some entries. The list is limited to them. The source may hold further records. Results that share an entry are repeated measurements across runs, samples, wells, individuals or studies. Marks such as [2022-09] give the month of the run. Marks such as (2×) say how often a value occurs here.

Tested on: KRAS patient-derived spheroids with HUVEC/MSC, viability
Assay: Anticancer human tumor 323965-272-R-J2-PDC patient-derived pancreatic carcinoma cell line growth inhibition [KRAS2]
Details: for viability, T/C: stronger effect = lower value; for IC50: compound alone, run of 08/19/2021
From the text: Multicellular complex tumor spheroid response to RAS pathway inhibitors in combination with a targeted agents in patient-derived cell lines with oncogenic KRAS variants from multiple cancer types
A high-throughput screen of multi-cell type tumor spheroids was designed to identify active combinations of targeted small molecules and KRAS pathway inhibitors. Complex spheroids include a stromal component modeled by human endothelial cells (HUVEC) and fibroblasts modeled by human mesenchymal stem cells (MSCs). The concentration ranges selected for each drug and investigational agent were based upon clinically achievable concentrations if the clinical Cmax of the agent was known.
Compounds. The drugs and investigational agents: BI-3406 (NSC825286), BAY-293 (NSC824723), batoprotafib (TNO155; NSC825523), sotorasib (AMG 510; NSC818433), MRTX1257 (NSC819558), elimusertib (BAY 1895344; NSC800525), molibresib (GSK525762; NSC774829), temuterkib (LY3214996; NSC803410), venetoclax (NSC766270), alisertib (NSC759677), olaparib (NSC753686), talazoparib (NSC767125), erdafitinib (NSC781556), ipatasertib (NSC767898), cabozantinib (NSC761068), nintedanib (NSC756659), abemaciclib (NSC768073), docetaxel (NSC628503), trametinib (NSC758246), and sapanisertib (NSC764658) were obtained from the National Cancer Institute (NCI) Developmental Therapeutics Program Chemical Repository. The FDA-approved anticancer drug set is available from the Developmental Therapeutics Program. […] The stock solutions were prepared in dimethyl sulfoxide (DMSO, Sigma-Aldrich, St. Louis, MO, cat. D2650) at 800-fold the tested concentration and stored at -70 degrees C prior to their use. All drugs and investigational agents were tested over a range starting from a high concentration at or near the clinical Cmax and decreasing in half-log increments. If the clinical Cmax for an agent had not been determined, the highest concentration tested was 10 microM.
Cell Culture. All cells were maintained in an incubator at 37 degrees C and 5% CO2 with 95% humidity. The PDC lines were cultured according to standard operating procedures established by the NCI PDMR (https://pdmr.cancer.gov/sops/default.htm). Briefly, all PDCs were thawed and cultured in Matrigel-coated flasks prepared with a working solution of 1X Ham's F-12 nutrient mix, without supplementation (Invitrogen, Waltham, MA, cat. 11765054), 100 U/mL penicillin-streptomycin (Invitrogen, cat. 15140122), and 2.5% Matrigel (Corning Inc., Corning, NY, cat. 354248) for the first three passages. All PDCs were cultured in complete DMEM/F-12 media containing advanced DMEM/F-12 (Invitrogen, cat. 12634028), 4.9% defined fetal bovine serum, heat inactivated (HyClone Laboratories Inc., Logan, UT, cat. SH30070.03HI), 389 ng/mL hydrocortisone (Sigma-Aldrich, cat. H4001), 9.7 ng/mL human EGF recombinant protein (Invitrogen, cat. PHG0313), 23.4 microg/mL adenine (Sigma-Aldrich, cat. A2786), 97.3 U/mL penicillin-streptomycin (Invitrogen, cat. 15140122), 1.9 mM L-glutamine (Invitrogen, cat. 25030081), and 9.7 microM Y-27632 dihydrochloride (Tocris Bioscience, Bristol, United Kingdom, cat. 1254). The PDCs were cultured in complete DMEM/F12 media without 9.7 microM Y-27632 dihydrochloride for at least two passages prior to the screen. The established cell line HOP-62 was cultured in RPMI 1640 medium, HEPES (Invitrogen, cat. 22400105) with 10% defined fetal bovine serum (HyClone Laboratories Inc., cat. SH30070.03) and 2 mM L-glutamine (Invitrogen, cat. 25030081). The pooled donor HUVEC were cultured in endothelial cell growth medium 2 (PromoCell, Heidelberg, Germany, cat. C-22011) and the hMSC were cultured in mesenchymal stem cell growth medium 2 (PromoCell, cat. C-28009). For all experiments, HUVEC and hMSC were used at passages </=5, while the malignant cell lines were used at passages </=15. […]
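Also: spheroids exposed to agents for 7 days.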
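For viability, T/C in this document: 100% = DMSO vehicle control viability.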

Row | SMILES | viability, T/C (compound alone 0.316 µM) | viability, T/C (compound alone 3.16 µM) | IC50 | viability, T/C (compound alone 0.1 µM) | viability, T/C (compound alone 10 µM) | viability, T/C (compound alone 0.01 µM) | viability, T/C (compound alone 1 µM)
1 | C=CC(=O)N1CCN(c2nc(OCC3CCCN3C)nc3c2CCN(c2cccc4cccc(C)c24)C3)CC1CC#N (configuration not stated) | 64.5 (2×), 60.4, 61.1, 58.8, 51.7, 63.4, 54.1, 61.2, 60.9, 59% [2021-08] and 54.4, 114, 60.5, 48.8, 50, 50.8% [2021-09] | 98.2, 32.5, 32.2, 31.2, 20.8, 23.3, 22.7, 24.7, 9.86, 14.9, 12% [2021-08] and 3.61, 12.2, 11, 9.84, 5.39, 2.47% [2021-09] | > 3.16 µM, 1.55 µM, 1.14 µM, 1.64 µM, 1.53 µM, 1.32 µM |  |  |  | 
2 | CNCc1ccccc1-c1csc(C(C)Nc2nc(C)nc3cc(OC)c(OC)cc23)c1 (configuration not stated) |  | 83.4, 88.8, 97.7, 96.2, 98.9, 87.7, 85, 91.3, 103, 83.6% [2021-08] and 80.3, 81.5, 88.2, 82, 74.3, 83.5% [2021-09] | > 10 µM, 5.05 µM, 5.26 µM, 5.49 µM, 5.74 µM, 5.08 µM | 87.1, 80.6, 92.3, 91.2, 93.2, 83.6, 87.9, 92, 100, 89% [2021-08] and 93.6, 87.3, 91.1, 102, 73.2, 86.7% [2021-09] | 82.9, 0.31 (2×), 0.32, 5.31, 8.31, 0.21 (2×), 0.23% [2021-08] and 0.21%, 0.19%, 0.16% [2021-09] |  | 
3 | CCN1CCN(Cc2ccc(Nc3ncc(F)c(-c4cc(F)c5nc(C)n(C(C)C)c5c4)n3)nc2)CC1 |  |  |  |  |  | 105, 96.9, 96.3, 95.7, 79.8% | 
4 | CC1OCC2(CCN(c3cnc(Sc4ccnc(N)c4Cl)c(N)n3)CC2)C1N (configuration not stated) |  | 40, 35.8, 36.7, 35.6, 37.6, 42.8, 40.6, 39.8, 40.5, 33.5, 19.3% [2021-08] and 34, 27.4, 36.3, 17.9, 17.6, 23.9, 23.8, 24.7, 38% [2021-09] | 2.08 µM, > 10 µM, 2.2 µM, 695 nM, 1.17 µM, 1.35 µM | 61, 86.2 (2×), 76.8, 79.8, 69.6, 75.2, 76.2, 71.3, 78.4, 77.7% [2021-08] and 81.4, 73.4, 78.6, 76.4, 78.3, 81, 77.5, 78% [2021-09] | 39.8, 103, 33, 36.1, 29.8, 35.2, 28.1, 32.4, 33.2, 28.8, 22.3% [2021-08] and 19, 25.9, 16.3, 14.7 (2×), 16.1, 18.7, 24.1% [2021-09] |  | 85.6, 101, 99, 50.2, 52.6, 51.5, 44.1, 52.5, 48.2, 49.3, 43.7% [2021-08] and 52, 42.3, 62.5, 34.8, 45.2, 39.4, 37.5, 40.7, 50.3% [2021-09]
5 | COc1cc2nc(C)nc(NC(C)c3cc(N)cc(C(F)(F)F)c3)c2cc1OC1CCOC1 (configuration not stated) |  |  |  | 80.4, 87.7, 82.5, 98.1, 80, 77.1, 85.8, 79.8, 82.3, 78.3, 81.2% [2021-08] and 70.8, 70.1, 79.6, 72.1, 65.2, 76.9% [2021-09] | 78.9, 83.3, 75.5, 93.1, 83.7, 71, 77.9 (2×), 78.6, 90.1, 62.2% [2021-08] and 71.6, 68.6, 69.1, 77.4, 67.2, 55.9% [2021-09] |  | 75, 75.9, 98.2, 71.2, 75.7, 68.6, 82.8, 70.3, 81.5, 78, 79% [2021-08] and 64.3, 70.6, 85.7, 71.7, 63.8, 59.8% [2021-09]
6 | COC(=O)c1ccc2c(C(=Nc3ccc(N(C)C(=O)CN4CCN(C)CC4)cc3)c3ccccc3)c(O)[nH]c2c1 |  |  |  |  | 38.3, 38.8, 98.3, 89.4, 105% |  | 
